From the supplement of paper PMC11417369
± gives the standard deviation of the averaged measurements. Some of the results follow.

Each sequence was assayed on PfAP2-G AP2 domain (GST-tagged) (assay: gcPBM binding intensity (ln(normalized median fluorescence intensity)); higher = stronger DNA binding).
How it was run: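 GST-tagged P. falciparum DNA-binding domains, expressed in E. coli (about 25 μg on average), were applied for 1 h to an Agilent 4 × 180k array of primer-extended double-stranded 36-bp intergenic genomic probes plus negative controls. The binding buffer was 1× PBS with 1% milk, 0.2 mg/ml BSA, 0.5% salmon testes DNA and 0.03% Triton X-100. Bound protein was detected with Alexa488 anti-GST antibody and scanned at 488 nm. Binding intensity is the highest Masliner-normalised natural-log median intensity across replicate spots of either probe orientation.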

Row | Sequence | gcPBM binding intensity (ln)
1 | GTATTTATAAATTATAGTACTTTGCGTATCATATAT [XGTACX_site7358] | 11.2 ± 0.58
2 | ATTTTATATCTGGATAGTACTTTAATATTTCAAATG [XGTACX_site7304] | 10.9 ± 0.41
3 | AGAATTCGTTTAAAAAGTACATTCAATTTAATAATG [XGTACX_site6603] | 11.2 ± 0.86
4 | AATATTTTAAAAAAAAGTACATTATATATATATGTT [XGTACX_site8073] | 11.4 ± 0.91
5 | TAGTATTAAAATATTTGTACTTATATGTATTATATA [XGTACX_site538] | 11 ± 0.69
6 | TGTAGTCTGGAGAAGAGTACACAGTATCTGGTAACA [XGTACX_site2038] | 11.5 ± 1.1
7 | TGTATATATAAACATGCACACGTGGTTGTATATATA [CACACA_site9078] | 10.2 ± 0.23
8 | TCATAGTATAGACACACACACACACGCATATAAATA [CACACA_site6915] | 10.2 ± 0.18
9 | TCTTTGTAAATTTCTTGTACGTAAATTTTTTTTAGG [XGTACX_site7062] | 11.5 ± 0.93
10 | TATTTTACATCTTCTCACATTTTATCACTTTTTAAA [CACACA_negctrl_site330] | 10.13 ± 0.078
11 | AATAAAAAGGAACACACACACACACGGATATAAATA [CACACA_site7658] | 10.2 ± 0.2
12 | ATTTATTTATTGGCACGTACAAATTTGTGTTTTCCA [XGTACX_site6978] | 11.2 ± 0.67
13 | TTGTAAATTTCTGGTTATATATTTTATGTATATGTT [CACACA_negctrl_site1443] | 9.97 ± 0.11
14 | TTTTTTTCTTTTCAAACACACAATTGGTATATATCA [CACACA_site7542] | 10.2 ± 0.42
15 | TTTTTTTTATGGTACACACACGCGTATGGTTGCACG [CACACA_site1877] | 11.5 ± 0.91
16 | TTATTTTTGTTCATAGTGCATAGAATTTATACATAT | 10.1 ± 0.16
17 | ATAGACAGCGCACAAACACACAAACACAGACCCCCA [CACACA_site4409] | 10.9 ± 0.61
18 | ATATATTTAAACTACACACGCATATCTTAGAAATAA [CACACA_site1272] | 10.06 ± 0.021
19 | TATAAAAAAAGAGGAGGGATGGTATACTTGTGGTTT [TGCATGCA_negctrl_site49] | 9.78 ± 0.071
20 | AAAGAAATGAAATATACACACATACATAAATACATA [CACACA_site6081] | 10.01 ± 0.057
21 | AATTATATATTATAATGTACATATATATAACTATAC [XGTACX_site1865] | 11.1 ± 0.64
22 | ATAAAGGAAATTACAAGTACAAATAAGATAAAATAA [XGTACX_site4514] | 11.1 ± 0.57
23 | CGTATATGACAAAAGCGTACGCATCAGCAGAAAAAT [XGTACX_site6248] | 11.4 ± 0.88

Row | Sequence | gcPBM binding intensity (ln)
24 | ATATATATATATATATGTACTGAATAAAGAACAAAA [XGTACX_site5400] | 11 ± 0.64
25 | AGAAATAAGAAATATACACACATATAAATATAAATA [CACACA_site7342] | 9.81 ± 0.028
26 | AAAAAAAATGATAATATACACACTTATGGGAGAGCG [CACACA_site2516] | 9.745 ± 0.007
27 | TATATTTTTTAAACCACACACAATATAGAGTAGAAT [CACACA_site613] | 10.29 ± 0.049
28 | TAATGTACATAAACCGCACACATATAAAAAAATAAA [CACACA_site2851] | 11.1 ± 0.95
29 | AGGGGAAATAAAATATAAATTATCATATATATATAT [XGTACX_negctrl_site366] | 9.73 ± 0.28
30 | AGAATATGTTAAAAAAGTACATACTCTTTATATACG [XGTACX_site79] | 11.4 ± 0.79
31 | TAAAAAAAAACATATACACACAAAAACGTACACATA [CACACA_site1354] | 11.8 ± 1.1
32 | TTTTTTTCTCACAATCGTACATAAATACATATATAT [XGTACX_site3150] | 11.1 ± 0.75
33 | AATACAGAGGAAAATACACACGTATATATATAAATA [CACACA_site9125] | 10.14 ± 0.035
34 | TAGAATAATCCTTACACACACACACCCACGAATAAA [CACACA_site483] | 10.4 ± 0.42
35 | TGCAATGGAGCATAAAGTACATATAATTGTATTTTT [XGTACX_site7349] | 11.1 ± 0.46
36 | TTTTAAAATTATTAGGTGCATATTTATTCTATATTT | 9.92 ± 0.028
37 | TGTTTTTTTATTTTCACACATAATCCAATTATACAT [CACACA_site6070] | 10.2 ± 0.13
38 | TTTTAAAAAAAAAAAAAAAAAAAAAAAAAAAAAAAA [CACACA_negctrl_site1343] | 9.55 ± 0.2
39 | AGGTCTATATAATAAGTGCATTTTTTTTTTTTTTTT [GTGCAC_site9664] | 10.2 ± 0.26
40 | GTTATACTCATCAACACACACATACAACGTGGTGTA [CACACA_site4789] | 9.955 ± 0.078
41 | TTAAAAAAATATAGAGCATGCTAAAAATAAAAAAAT [TGCATGCA_site794] | 9.71 ± 0.12
42 | AATAAAAATAATATAGTGCATAATATAAGGAAAAAA | 10 ± 0.028
43 | CAACACTTAGATTTTAAGTTCACTGGTTAATATATA [CACACA_negctrl_site707] | 10 ± 0.15
44 | CACATAAAAAAATAAACACACATATGTATTTATATA [CACACA_site5718] | 9.82 ± 0.31
45 | CATATCATTGATTATAGTACACATACCATTTTTTAT [XGTACX_site6572] | 11.2 ± 0.86
46 | ATCAACAAAACATACACACACATATATATATATATA [CACACA_site2989] | 10.1 ± 0.34

Row | Sequence | gcPBM binding intensity (ln)
47 | TTTCTATATCTATTTAATTAACTTTTTATACTGATT [GTGCAC_negctrl_site415] | 9.68 ± 0.14
48 | GCATCTCATTTGTGATGTACTATATTATCCGTTTTT [XGTACX_site7576] | 10.9 ± 0.74
49 | TTTTTTGTTAAAAGAGTGCAAATTTTTAAAGATTTG [GTGCAC_site9502] | 10.2 ± 0.46
50 | TATATGTTTGAATATACACACAACATATTTATATAT [CACACA_site7832] | 9.875 ± 0.064
51 | AAAAAAAAAAAATATGTACACACATATATAATACAT [CACACA_site8473] | 11.4 ± 0.95
52 | AAATACATTAAAATGACATGCAGATATATATCAAAA [TGCATGCA_site477] | 9.83 ± 0.085
53 | TATATATCAATATTTACACACATGCGCCCACATAAA [CACACA_site7185] | 10.8 ± 0.45
54 | AGTAATATAATATAAGCACACGTGTATTTATTTAGG [CACACA_site7921] | 10.18 ± 0.057
55 | AAAAAAAAAAAAAAATACAAGCACATTTATATAAGC [GTGCAC_negctrl_site695] | 10.04 ± 0.057
56 | TGCTTATATTTTTATACACACAAGATACTTTTTGTT [CACACA_site1535] | 10.3 ± 0.16
57 | ATCTAAATAAAGTTAACACACACATAATATATATAT [CACACA_site8055] | 10.1 ± 0.28
58 | AAAAAAAAAAGACACACACACACAAATACATACACA [CACACA_site6472] | 10.3 ± 0.3
59 | TGAATAAAGATATATACACACATATAGGTATATATC [CACACA_site6870] | 9.795 ± 0.021
60 | TTTTTTTCTTTTGGGAGTACCAACATTTTCACATAT [XGTACX_site1371] | 11.3 ± 0.75
61 | CTATGCCCCATATAAACACACAAATAAAAAGAATAT [CACACA_site2681] | 10.1 ± 0.17
62 | TTATGTAAATGCTTATGTACTTATTACAATATTTTT [XGTACX_site4057] | 11.1 ± 0.69
63 | AAAACAAATAAGTAAACACACATATAAAATCTATAT [CACACA_site7262] | 9.835 ± 0.049
64 | CCTATTTATTTATACACACACATATATAAATAAATA [CACACA_site7417] | 10.3 ± 0.38
65 | TAAGAATTGAAAAAATGTACACAATATAAAATTGAA [XGTACX_site698] | 11.3 ± 0.77
66 | AAAAAGAATAAATAAATAAATAAATATATATATATA [GTGCAC_negctrl_site584] | 9.98 ± 0.55
67 | ATATTATATAAATACACACACACATGCATGCACATA [CACACA_site4236] | 10.2 ± 0.11
68 | TTTATTACTATGTAAACACACATGCAATATATGTTA [CACACA_site1114] | 9.92 ± 0.014
69 | AAAAAGAAAAAAAAATGTACATAAAGTCTAATGATA [XGTACX_site4781] | 11.1 ± 0.44

Row | Sequence | gcPBM binding intensity (ln)
70 | TATATATATTATATATGTACATATATTTTTTTTTTT [XGTACX_site127] | 11.2 ± 0.81
71 | ATTTATATTACAAAAAGTACACACATAAATAAATAC [XGTACX_site1827] | 11.6 ± 0.92
72 | CAATCATAGAAAAACAGTACGTGTAGCAAACATCCT [XGTACX_site4889] | 10.8 ± 0.45
73 | TATAATATATTATAACGTACAAATATATATATAAAA [XGTACX_site6581] | 11 ± 0.65
74 | AAAAAAAAAAAATATATATATATATATATATATATA [CACACA_negctrl_site1606] | 9.81 ± 0.73
75 | TATTAATCATATAAATGTACGTATATATATTTTTCT [XGTACX_site1421] | 11.4 ± 0.86
76 | ATATATATATATATAACACACGTGTATATATATGTA [CACACA_site3644] | 10.2 ± 0.33
77 | TATATATATATATGGGGTACAAATGGTCAGTATTAT [XGTACX_site1223] | 11.7 ± 0.97
78 | ATGTTATTAAAAAAGGGTACACATCTTTTATGTTAA [XGTACX_site812] | 11.4 ± 0.88
79 | AATATGTAATAGTGTACACATATATCTGTATTTATG [CACACA_site4252] | 11.6 ± 0.91
80 | TTTAAATATAATTGGAGTACTTATAATATATATATA [XGTACX_site7247] | 11.5 ± 0.95
81 | ATTACACATATAGTAGTGCAATAACTCCAAAAAAAA | 10.3 ± 0.3
82 | AAAATCTAGGTATTTATACACACTAAAATAATATAC [CACACA_site623] | 10.1 ± 0.13
83 | CAAATACAGAAACACACACACATATACATATATATA [CACACA_site3498] | 9.87 ± 0.12
84 | AAAAAAAAATTATATACACACATATAAATATATATA [CACACA_site1197] | 9.57 ± 0.099
85 | CTATATAATATGAGCACACATAAGATTTGGTGTTAT [CACACA_site744] | 10.01 ± 0.028
86 | GAAAATATAAAAAAAAGTACATTTTCTCTAAATATA [XGTACX_site2441] | 11.1 ± 0.75
87 | AAAAAGGGTATTATTACACACACGTAAATATTAAGA [CACACA_site4233] | 10.13 ± 0.071
88 | AATTTTTTTTTATTGTGTACTTATTTTTTTATATTT [XGTACX_site917] | 11.7 ± 0.88
89 | ATGTTATATATGTATTGTACGTATTTTGTATATTAT [XGTACX_site6607] | 11.6 ± 1.1
